“Also recorded” adds a separate entry of the source.
Columns and labels:
[1] = test system: bleomycin-induced pulmonary fibrosis; assay: Bleomycin mouse model of pulmonary fibrosis, plant-made E3 variants oral or IV; assay type: in vivo; conditions: for efficacy of IV versus oral administration: IV 100 or 200 μg vs oral 50 μg; for bleomycin-induced pulmonary fibrosis: oral or IV, concomitantly or after fibrotic trigger (d8); for fibrosis, treatment eight days after bleomycin: orally and intravenously, only three mice per group
From the text: Peptides were expressed in plants using the IBIOLAUNCH™ gene expression platform. C57BL/6 mice were given bleomycin intratracheally in conjunction with END-55 (also referred to herein as E3-Fc (C67A) and CFB03) intravenous (IV) administration, or followed by IV administration of END-55 eight days after bleomycin. The mice were sacrificed at day 12 and lung samples were taken for both hematoxylin and eosin (H&E) staining and hydroxyproline assay.
Pulmonary fibrosis was induced in mice using bleomycin. Animals were treated orally with E3 variants or phosphate buffered saline (PBS). Lung histology was examined, showing that orally delivered E3 variants (E3-6His-KDEL (SEQ ID NO:19) and Expanded E3-6His-KDEL(SEQ ID NO:19)) prevented bleomycin-induced pulmonary fibrosis.
For the experiments shown in FIGS. 21 and 22, pulmonary fibrosis was again induced in mice using bleomycin. Controls were administered PBS, while experimental samples also had END55 (also referred to as E3-Fc (C67A)) administered orally or intravenously. Hydroxyproline content was measured in the lung.
To evaluate tissue fibrosis/collagen deposition, a hydroxyproline quantification assay was performed. Lung samples were removed and digested overnight at 110° C. in 1 mL 6 N HCl. After neutralization with 6 N NaOH, the pH was adjusted within the range of 6.0-9.0 and samples were mixed with 1 mL chloramine T solution (1.4% chloramine T, 10% isopropanol, 0.5 M sodium acetate, pH 6.0) for 20 minutes at room temperature. Following treatment with chloramine T solution, samples were mixed with 1 mL Erlich's solution (14.9% p dimethylaminobenzaldehyde, 70% isopropanol, 20% perchloric acid; Sigma-Aldrich) and incubated for 15 minutes at 65° C. Aliquots were transferred to 96-well plates, and absorbance was measured at 570 nm. Collagen content was calculated by comparison with a standard curve generated with cis-4 hydroxy-L-proline (Sigma-Aldrich), using the conversion factor of 1 μg hydroxyproline corresponding to 6.94 μg. This assay has been used in the studies described below using iBio-CFB03 and is used in non-clinical studies in this mouse model.
C57BL/6 mice were given bleomycin i.t. in conjunction with iBio-CFB03 intravenous (IV) administration or followed by IV administration of iBio-CFB03 eight days after bleomycin. The mice were sacrificed at day 12 and lung samples were taken for both H&E staining (FIG. 40) and hydroxyproline assay (FIG. 41). A diagram of the experimental design can be found in FIG. 39. […] However only 3 mice were treated in each of these groups. These experiments were therefore repeated with iBio-CFB03 administered IV at 200 μg/mouse (n=9) or orally at 50 μg/mouse (n=9) (FIG. 42).

[2] = test system: bleomycin s.c. dermal model of SSc; assay: Osmotic pump s.c. administration in bleomycin mouse dermal model of SSc; assay type: in vivo; conditions: 460 μg s.c. by pump for seven days after 7 days of bleomycin; day 35
Procedure: C57BL/6 mice were given 33 mU of bleomycin for seven days using mini-osmotic pumps surgically implanted on the backs of the mice to deliver bleomycin subcutaneously. On day 7, the pumps were removed and replaced with pumps containing 460 μg of iBio-CFB03 administered s.c. for an additional seven days. Mice were sacrificed at day 35 and skin from the back on the opposite side of the pump site was excised, formalin-fixed and embedded in paraffin. Skin sections were stained with H&E (FIG. 43) and dermal thickness (FIG. 44) was measured.

human skin explants = assay: Ex vivo human skin TGF-β model of SSc, hydroxyproline assay; assay type: cell-based; conditions: single intradermal dose 100 μg concurrently with 10 ng TGF-β; one week
Procedure: Efficacy of iBio-CFB03 was assessed in human skin models of SSc induced by injection of TGF-β. TGF-β induces pathological changes in skin characteristic of SSc. iBio-CFB03 attenuated TGF-β induced fibrosis in human skin when administered concurrently with TGF-β. When administered concurrently with 10 ng TGF-β, a single intradermal dose of 100 μg iBio-CFB03 prevented the increased collagen when evaluated one week post dosing via hydroxyproline assay (FIG. 45).
Human skin was obtained from abdominal surgery, trimmed, fat cleaned, and cut into ˜1×1 inch pieces. Pieces were maintained in organ culture in an air-liquid interface. Pieces were injected with vehicle (V), TGF-β (T) or TGF-β+iBio-CFB03 (T+iBio-CFB03) in a volume of 100 μl. Doses: Vehicle=100 μl of 1×PBS; T=10 ng of TGF-β; T+iBio-CFB03=10 ng TGF-β+100 μg iBio-CFB03. After one week (7 days), 3 mm punches of skin were obtained and hydroxyproline measured in the skin punches. The data represent n=3/group. * denotes p<0.05.

[3] = iBio-CFB03 solubility and storage stability; assay type: physicochemical
Procedure: iBio-CFB03 is a multimeric protein approximately 1.2 mega-Daltons (MDa) with a repeating monomer with two major glycoforms between 31 and 33 kDa.
Purity of the TFF retentate was evaluated with size exclusion chromatography (SEC) and compared to non-infiltrated retentate (FIG. 30). […] The retentate is largely comprised of iBio-CFB03 product, with plant host cell proteins contributing the remainder. The product is soluble in PBS and saline at a level of 50 mg/mL.

[4] = Simulated Gastric Fluid (pepsin) digestion; assay type: in vitro ADME; conditions: by the 300 second time point
Procedure: Equal amounts of purified END-55 from Novici (PEG purified) or Caliber (Protein A purified) were digested in Simulated Gastric Fluid (SGF) for 0, 5, 30, 45, 60, or 300 seconds. The reaction was stopped with 160 mM sodium carbonate. Samples were then run on a 4-20% SDS-PAGE gel and imaged on a stain-free gel imager for total protein (FIG. 48, left panel). Gel was then transferred to nitrocellulose and probed with either a chicken anti-E3 antibody (FIG. 48, middle panel) or anti-human Fc antibody (FIG. 48, right panel) for Western blot. […] Differences between the Caliber and Novici samples appear to be a ˜14 kD band which is more prominent in the early time points for Caliber material and less glycosylated E3-Fc in the Caliber samples. The ˜10 kD E3-positive band is slightly weaker in the Caliber samples. All images are scaled and aligned with each other.

[5] = Solubility of Ig Fc fusions to E3 in plant lysates; assay type: physicochemical; conditions: plant lysate, non-denaturing (normal) grind buffer
From the text: For IgG Fc expression, clarified plant lysates were run on a Western blot (Genway chicken E3 antibody). Fusions included E3 (C67A) linked to either the N-terminus of the hinge+Fc domains of IgG2, IgG3, or IgG4, or to the C-terminus of the hinge +Fc domain of IgG1. […] The E3-IgG1 fusion expressed well. The non-reducing samples all appeared to form large structures, although perhaps not as large as the END-55 (iBioCFB03) BMW multimers (FIG. 24).
For IgA/M expression, clarified plant lysates were ground in either denaturing (total) or non-denaturing buffer (soluble) and run on a Western blot (Genway chicken E3 antibody). Fusions contained E3 (C67A) linked to the N-terminus of the hinge+Fc domains of IgA1, IgA2, or IgM. The IgA1 and IgA2 fusions were insoluble in normal grind buffer. The IgM fusion had very low expression. J-chain co-expression had no obvious effect.

B1: iBio-CFB03: SEQ ID NO:16; E3 with third cysteine changed to alanine fused to human IgG1 Fc domain; plant-made (protein)
chain: MGKMASLFATFLVVLVSLSLASESSASYCETWRTEAPSATGQASSLLGGRLLGQSAASCHHAYIVLAIENSFMT[… human IgG1 Fc …]
modifications: E3-Fc amino acid sequence including a secretory sequence, a portion of human endostatin having a C67A mutation, and an IgG Fc domain
notes: E3 with third cysteine changed to alanine fused to human IgG1 Fc domain; plant-made
**Q.** With B1 as the molecule, how does the “pulmonary fibrosis by hydroxyproline assay” value ([1]; IV 100 μg or 200 μg, vs bleomycin only, day 12) read?
**A.** reduced pulmonary fibrosis

**Q.** And the “efficacy of IV versus oral administration” value [1]?
**A.** at least as efficacious

**Q.** What about the “efficacy of IV versus oral administration” value ([1]; listed as E3-Fc) of the same molecule?
**A.** comparable

**Q.** What about the “minimum dose at which significant effects were observed” value ([1]; mouse-bleomycin model) of the same molecule?
**A.** 20 μg per animal

**Q.** And the bleomycin-induced pulmonary fibrosis [1]?
**A.** ameliorated; also recorded: reduced pulmonary fibrosis

**Q.** And the bleomycin-induced pulmonary fibrosis ([1]; listed as END55)?
**A.** prevented

**Q.** And the bleomycin-induced pulmonary fibrosis ([1]; listed as END-55)?
**A.** ameliorated

**Q.** And the “fibrosis, treatment eight days after bleomycin” value (from here on “fibrosis, treatment eight days”) [1]?
**A.** appeared to reduce fibrosis

**Q.** What about the “fibrosis, treatment eight days” value ([1]; listed as E3-Fc) of the same molecule?
**A.** potential to reverse lung fibrosis

**Q.** And the “fibrosis, treatment eight days” value ([1]; listed as END55)?
**A.** potential to reverse lung fibrosis

**Q.** And the “fibrosis, treatment eight days” value ([1]; listed as END-55)?
**A.** appeared to reduce fibrosis

**Q.** What about the “pulmonary fibrosis, repeat experiment” value ([1]; repeat experiment n=9, IV 100 μg/mouse as printed, vs bleomycin only) of the same molecule?
**A.** reduced pulmonary fibrosis

**Q.** What about the dermal thickness [2] of the same molecule?
**A.** reduced dermal thickness as

**Q.** And the “TGF-β induced fibrosis / collagen increase (hydroxyproline)” value (human skin explants)?
**A.** prevented; also recorded: TGF-β, significantly attenuated

**Q.** What about the “solubility, stability relative to E3/E4” value [3] of the same molecule?
**A.** improves the solubility, stability

**Q.** And the solubility ([3]; in PBS and saline)?
**A.** 50 mg/mL

**Q.** What about the “solubility and stability on storage” value ([3]; stored at 4° C. in phosphate buffered saline (PBS)) of the same molecule?
**A.** soluble and stable

**Q.** And the “stability of liberated E3 fragment in SGF” value [4]?
**A.** largely degraded

B2: E3_C67A-Fc_IgG4: SEQ ID NO: 24 (protein)
chain: MGKMASLFATFLVVLVSLSLASESSASYCETWRTEAPSATGQASSLLGGRLLGQSAASCHHAYIVLAIENSFMT[… human IgG4 Fc …]
modifications: E3_C67A-Fc_IgG4 fusion
**Q.** With B2 as the molecule, how does the solubility [5] read?
**A.** soluble

From patent publication US11912755B2, “Endostatin fragments and variants for use in treating fibrosis” (iBio, Inc., priority 2015, dated 2024)
